# According to publication PMC4336329 (PLoS ONE, 2015):
# Screen size: about 310,000 compounds; about 14,000 (4.5%) showed an effect of 50% or more. The effect is printed as a negative number. The list shows a part of the results.
# Biological target: human ether-à-go-go-related gene (hERG) potassium channel (human, UniProt Q12809)
# Assay: primary screen, population patch clamp on CHO cells stably expressing hERG
# 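Also: peak tail current of the secondary pulse compared with the same well before compound.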
# human ether-à-go-go-related gene (hERG) potassium channel, sequence (Q12809 whole entry, looked up): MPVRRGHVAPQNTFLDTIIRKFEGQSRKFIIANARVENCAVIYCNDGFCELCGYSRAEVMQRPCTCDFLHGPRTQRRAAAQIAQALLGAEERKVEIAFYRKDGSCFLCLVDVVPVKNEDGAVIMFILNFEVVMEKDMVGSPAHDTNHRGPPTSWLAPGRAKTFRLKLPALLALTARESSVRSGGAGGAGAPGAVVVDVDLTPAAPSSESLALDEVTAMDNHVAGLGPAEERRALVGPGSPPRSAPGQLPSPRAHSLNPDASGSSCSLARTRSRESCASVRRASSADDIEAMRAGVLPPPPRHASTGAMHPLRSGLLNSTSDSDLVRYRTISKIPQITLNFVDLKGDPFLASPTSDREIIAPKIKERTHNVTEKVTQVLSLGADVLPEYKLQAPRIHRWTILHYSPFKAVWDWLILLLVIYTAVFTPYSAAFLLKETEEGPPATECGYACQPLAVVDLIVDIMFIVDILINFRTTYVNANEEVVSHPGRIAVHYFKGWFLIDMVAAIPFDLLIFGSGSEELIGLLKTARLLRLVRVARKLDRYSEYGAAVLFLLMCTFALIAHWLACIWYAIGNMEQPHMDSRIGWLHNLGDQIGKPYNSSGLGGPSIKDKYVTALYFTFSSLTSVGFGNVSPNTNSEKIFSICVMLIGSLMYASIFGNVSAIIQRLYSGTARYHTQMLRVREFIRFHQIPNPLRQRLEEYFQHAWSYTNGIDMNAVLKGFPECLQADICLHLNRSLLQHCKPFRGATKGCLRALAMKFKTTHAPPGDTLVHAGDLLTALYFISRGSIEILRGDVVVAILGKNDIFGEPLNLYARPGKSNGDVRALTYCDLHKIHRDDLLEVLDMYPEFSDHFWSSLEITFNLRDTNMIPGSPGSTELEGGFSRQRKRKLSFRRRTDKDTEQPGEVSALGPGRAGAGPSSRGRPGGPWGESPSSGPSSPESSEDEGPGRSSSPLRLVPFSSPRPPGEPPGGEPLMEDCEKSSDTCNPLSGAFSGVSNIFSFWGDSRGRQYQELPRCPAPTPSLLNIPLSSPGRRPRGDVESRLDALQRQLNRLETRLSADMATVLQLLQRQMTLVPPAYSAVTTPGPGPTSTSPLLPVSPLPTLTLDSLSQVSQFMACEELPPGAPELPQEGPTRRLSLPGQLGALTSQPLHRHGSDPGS
row,SMILES,"hERG current change (%, negative = inhibition) at 10uM"
1,Cc1cc(C)cc(NCc2cc(=O)oc3cc(-c4ccccc4)c(O)cc23)c1,8.13%
2,O=C(CCCc1c[nH]c2ccccc12)N1CCCCCC1,-13.9%
3,COc1ccc(OC)c(S(=O)(=O)Nc2ccccc2F)c1,-2.62%
4,CC1=NN(C(N)=S)C(=O)C1N=Nc1ccc(S(N)(=O)=O)cc1 (stereo not shown),17.3%
5,Cc1cc(C)n2nc(SCc3nnc(-c4ccccc4Br)o3)nc2n1,-16.5%
6,COc1ccc(NC(=O)c2sc3nc(C)nc(N4CCN(c5ccccn5)CC4)c3c2C)c(OC)c1,-1.79%
7,CCN(CC)CCCNC(=O)c1cc(-c2ccc(Cl)cc2)on1,-63.4%
8,O=C(Nc1ccc(Nc2ccccc2)cc1)N1CCOCC1,-11%
9,CCN(CC)S(=O)(=O)c1ccc(Cl)c(NC(=O)COC(=O)c2c(C)noc2C)c1,3.14%
10,O=C(/C=C/c1ccccc1)Nn1c(-c2cccs2)nc2ccccc2c1=O,-3.44%
11,O=C(Oc1ccc2ccc(O)cc2c1)c1ccccc1Cl,19.8%
12,COc1ccc(C2=NS(=O)(=O)N(C)C(C(=O)N3CCc4ccccc4C3)=C2)cc1OC,-3.31%
13,CN(C)S(=O)(=O)c1ccc(N2CCCC2)c(C(=O)NCc2ccccc2)c1,-10%
14,CN(Cc1cn[nH]c1-c1cc2ccccc2o1)CC1CCOCC1,-66.4%
15,O=C(C1CCCN(Cc2ccc(Cl)cc2)C1)N1CCCCC1.O=C(O)C(=O)O (stereo not shown),-14.9%
16,c1ccc2[nH]c(CN3CCCCC3)nc2c1,1.41%
17,COc1ccc(NC(C)=O)cc1NC(C)C(=O)Nc1ccc(F)cc1 (stereo not shown),-3.74%
18,Cc1[nH]c(C)c(S(=O)(=O)NCC(C)c2ccccc2)c1C(=O)N1CCCCC1 (stereo not shown),-0.274%
19,COC(=O)c1coc(-c2ccc(C)cc2)c1C(=O)OC,1.6%
20,Cl.O=C(c1cc(F)c(F)c(F)c1F)N1CCN(Cc2ccc3c(c2)OCO3)CC1,3.4%
21,COc1ccc(OC)c(S(=O)(=O)N2CCN(c3ccccn3)CC2)c1,-12.5%
22,O=C(O)CCC(=O)N1N=C(c2c(-c3ccccc3)c3cc(Cl)ccc3[nH]c2=O)CC1c1ccccc1 (stereo not shown),6.94%
23,Cc1ncc2c(c1OC(=O)c1ccc([N+](=O)[O-])cc1)COC(C)(C)OC2,-65.8%
24,CCc1ccccc1NC(=O)C1CCN(C(=O)N2CCOc3ccccc32)CC1,1.77%
25,CCCCN(CC)CCCNC(=O)c1cc2c(=O)n(CC)c3ccccc3c2s1,-28.6%
26,CC(CCN1CCN(CCO)CC1)c1ccccc1 (stereo not shown),9.32%
27,CSc1nsc(SC)c1C(=O)NCCNS(=O)(=O)c1ccc(C)cc1,2.51%
28,COc1cc(CNCCO)cc(Cl)c1OCc1ccccc1Cl.Cl,-2.88%

row,SMILES,"hERG current change (%, negative = inhibition) at 10uM"
1,CCC(C)(C(=O)NC1CCCC1)N(C(=O)c1ccccn1)c1ccccc1 (stereo not shown),-5.75%
2,COc1ccc(-c2noc(-c3ccc(C)cc3)n2)cc1,31.4%
3,COc1ccccc1NC(=O)c1sc2ncn(Cc3cccc(C)c3)c(=O)c2c1C,-7.24%
4,CCCC(CCC(=O)Nc1cc([N+](=O)[O-])ccc1O)C(=O)O (stereo not shown),19.2%
5,O=C(CN(Cc1ccccc1)S(=O)(=O)c1ccc(Br)cc1)N/N=C/c1ccccc1C(=O)O,8.75%
6,Cc1nc(C(=O)Nc2ccccc2Cl)cc2c1[nH]c1ccccc12,0.837%
7,COCCCNC(=S)NCCNc1nc2cc(C)cc(C)c2cc1C#N,-31.2%
8,O=C(/C=C/c1c(Cl)nc2ccccn12)N1CCN(c2ccc(F)cc2)CC1,-40.5%
9,O=C(Nc1ccccc1)C1CC(O)CN1S(=O)(=O)c1ccc([N+](=O)[O-])cc1 (stereo not shown),2.02%
10,Cc1cc(C)cc(NC(=O)CSc2nnc(C3CC3)n2CC2CCCO2)c1 (stereo not shown),-47.1%
11,O=C(Nc1cc2c(oc1=O)CCCC2=O)c1ccccc1,-6.91%
12,COc1ccccc1NC(=O)N(Cc1ccc2c(c1)OCO2)Cc1nc2ccccc2c(=O)[nH]1,-7.38%
13,COc1ccc(C(=O)Nc2ccc(S(=O)(=O)N3CCCC3)cc2)c(OC)c1,-1.22%
14,COC(=O)CSC1=C(C#N)C(c2ccccc2F)CC(=O)N1 (stereo not shown),7.73%
15,CCOC(=O)c1c(NC(=O)Cc2cccs2)sc(C)c1C,0.899%
16,CCc1nnc(NC(=O)CSc2nnc(C3CCCCC3)n2-c2cccc(Cl)c2)s1,-1.12%
17,Cc1ccc2oc(=O)n(Cc3ccccc3)c2c1,15.7%
18,COC(=O)c1ccccc1NC(=O)C1CCN(C(=O)c2cc(OC)c(OC)c(OC)c2)CC1,-18.5%
19,O=C(c1nc2ccccn2c1CNCCCn1cccn1)N1CCCC1,-12.1%
20,CC(=O)Nc1ccc(NC(=O)C2CCN(S(=O)(=O)c3cccc4nonc34)CC2)cc1,-8%
21,CCc1ccc(-c2nn[nH]n2)cc1,4.61%
22,O=C(NNC(=O)c1ccccc1OCc1ccccc1Cl)c1csc(N2CCOCC2)n1,31%
23,O=C(Cc1cccs1)Nc1ccc(NC(=O)c2ccco2)cc1,5.99%
24,CCc1ccc(NC(=O)c2ccc(C3SCC(=O)N3CCc3ccccc3)cc2)cc1 (stereo not shown),6.22%
25,C=CCn1c[n+](CC(=O)c2ccc(Br)s2)c2ccccc21.[Br-],-6.97%
26,CC(=O)c1c(C)[nH]c(C(=O)COC(=O)CCOc2ccc(C)cc2)c1C,-8.71%
27,CS(=O)(=O)c1ccc(Cl)c(NC(=O)C2CCCCN2S(=O)(=O)c2ccccc2)c1 (stereo not shown),-49.3%
